Experimental data published in patent US9872922B2, “Anti-EFNA4 antibody-drug conjugates” (PFIZER, INC., priority 2013, dated 2018).

Test system: LU86 small-cell lung cancer (SCLC) PDX
Assay: In vivo efficacy, LU86 SCLC PDX

B1: huE22-AcBut-CM: huE22 conjugated via lysine residues to AcBut-N-acetyl-γ-calicheamicin dimethyl hydrazide (AcBut-CM) (conjugate)
heavy: QVQLVQSGAEVKKPGASVKVSCKASGYTFTGYYIHWVRQAPGQGLEWMGWIYPGNFNTKYNERFKGRVTMTTDTSTSTAYMELRSLRSDDTAVYYCAREDGSPYYAMDYWGQGTSVTVSS[human IgG1 constant region omitted here]
light: DIVMTQTPLSLSVTPGQPASISCRSSQSLVHSNGNTFLYWYLQKPGQSPQLLIYRVSNRFSGVPDRFSGSGSGTDFTLKISRVEAEDVGVYYCFQATHVPWTFGGGTKVEIKRTVAAPSVFIFPPSDEQLKSGTASVVCLLNNFYPREAKVQWKVDNALQSGNSQESVTEQDSKDSTYSLSSTLTLSKADYEKHKVYACEVTHQGLSSPVTKSFNRGEC
mean tumor volume (0.09 mg/kg, Day 0): 143 ± 10
mean tumor volume (0.09 mg/kg, Day 7): 215 ± 19
mean tumor volume (0.09 mg/kg, Day 14): 66 ± 9
mean tumor volume (0.09 mg/kg, Day 21): 0 ± 0
mean tumor volume (0.09 mg/kg, Day 28): 0 ± 0
mean tumor volume (0.09 mg/kg, Day 35): 0 ± 0
mean tumor volume (0.09 mg/kg, Day 42): 0 ± 0
mean tumor volume (0.09 mg/kg, Day 49): 0 ± 0
mean tumor volume (0.09 mg/kg, Day 56): 0 ± 0
mean tumor volume (0.09 mg/kg, Day 63): 28 ± 22
mean tumor volume (0.09 mg/kg, Day 70): 52 ± 34
mean tumor volume (0.09 mg/kg, Day 77): 93 ± 60
mean tumor volume (0.09 mg/kg, Day 84): 117 ± 75
mean tumor volume (0.09 mg/kg, Day 92): 237 ± 124
mean tumor volume (0.09 mg/kg, Day 98): 304 ± 154
mean tumor volume (0.09 mg/kg, Day 105): 385 ± 179
mean tumor volume (0.09 mg/kg, Day 112): 420 ± 171
mean tumor volume (0.09 mg/kg, Day 119): 491 ± 163
mean tumor volume (0.09 mg/kg, Day 126): 602 ± 165
mean tumor volume (0.09 mg/kg, Day 133): 828 ± 213
mean tumor volume (0.27 mg/kg, Day 0): 138 ± 9
mean tumor volume (0.27 mg/kg, Day 7): 105 ± 12
mean tumor volume (0.27 mg/kg, Day 14): 0 ± 0
mean tumor volume (0.27 mg/kg, Day 21): 0 ± 0
mean tumor volume (0.27 mg/kg, Day 28): 0 ± 0
mean tumor volume (0.27 mg/kg, Day 35): 0 ± 0
mean tumor volume (0.27 mg/kg, Day 42): 0 ± 0
mean tumor volume (0.27 mg/kg, Day 49): 0 ± 0
mean tumor volume (0.27 mg/kg, Day 56): 0 ± 0
mean tumor volume (0.27 mg/kg, Day 63): 0 ± 0
mean tumor volume (0.27 mg/kg, Day 70): 0 ± 0
mean tumor volume (0.27 mg/kg, Day 77): 0 ± 0
mean tumor volume (0.27 mg/kg, Day 84): 0 ± 0
mean tumor volume (0.27 mg/kg, Day 92): 6 ± 6
mean tumor volume (0.27 mg/kg, Day 98): 34 ± 24
mean tumor volume (0.27 mg/kg, Day 105): 56 ± 32
mean tumor volume (0.27 mg/kg, Day 112): 99 ± 56
mean tumor volume (0.27 mg/kg, Day 119): 171 ± 109
mean tumor volume (0.27 mg/kg, Day 126): 239 ± 139
mean tumor volume (0.27 mg/kg, Day 133): 370 ± 201
mean tumor volume (0.27 mg/kg, Day 140): 429 ± 210
mean tumor volume (0.27 mg/kg, Day 147): 469 ± 222
mean tumor volume (0.27 mg/kg, Day 154): 599 ± 286
